# From the supplement of paper PMC8728848
# This is one part of the list.
# B1: LecB LY19 (Pseudomonas aeruginosa) (protein)
# chain: MATQGVFTLPANTQFGVTAFANSAGTQTVNVQVNNETVATFTGQSTNNGIIGSKVLNSGGGGKVQILVSVNGRSSDLVSAQVILANELNFALVGSEDSTDNDYNDAVVVINWPLG
# Columns and labels:
# Assay in all cases: glycan array binding signal (z-score within array); higher = stronger binding
# Conditions in all cases: glycan notation: IUPAC condensed, linker removed
# GlcNAc(b1-3)Gal(b1-4)Glc = biological target: GlcNAc(b1-3)Gal(b1-4)Glc
# Method in brief: (§1)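 Glycan array binding is given as a within-array Z-score, which can be read as non-binding when negative. The arrays, 3228 of them, came from the Consortium for Functional Glycomics database and were retained only where the protein sequence was available. Z-scores were averaged across arrays of the same protein sequence at different concentrations or buffers and across linkers.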
# [1] = biological target: GlcNAc(b1-3)Gal(b1-4)GlcNAc
# Method in brief: as §1
# [2] = biological target: GlcNAc(b1-3)Gal(b1-4)GlcNAc(b1-2)Man(a1-3)[GlcNAc(b1-3)Gal(b1-4)GlcNAc(b1-2)Man(a1-6)]Man(b1-4)GlcNAc(b1-4)GlcNAc
# Method in brief: as §1
# [3] = biological target: GlcNAc(b1-3)Gal(b1-4)GlcNAc(b1-2)Man(a1-3)[GlcNAc(b1-3)Gal(b1-4)GlcNAc(b1-2)Man(a1-6)]Man(b1-4)GlcNAc(b1-4)[Fuc(a1-6)]GlcNAc
# Method in brief: as §1
# [4] = biological target: GlcNAc(b1-3)Gal(b1-4)GlcNAc(b1-2)[GlcNAc(b1-3)Gal(b1-4)GlcNAc(b1-6)]Man(a1-6)[GlcNAc(b1-3)Gal(b1-4)GlcNAc(b1-2)Man(a1-3)]Man(b1-4)GlcNAc(b1-4)GlcNAc
# Method in brief: as §1
# [5] = biological target: GlcNAc(b1-3)Gal(b1-4)GlcNAc(b1-3)Gal(b1-4)GlcNAc
# Method in brief: as §1
# [6] = biological target: GlcNAc(b1-3)Gal(b1-4)GlcNAc(b1-3)Gal(b1-4)GlcNAc(b1-2)Man(a1-3)[GlcNAc(b1-3)Gal(b1-4)GlcNAc(b1-3)Gal(b1-4)GlcNAc(b1-2)Man(a1-6)]Man(b1-4)GlcNAc(b1-4)GlcNAc
# Method in brief: as §1
# [7] = biological target: GlcNAc(b1-3)Gal(b1-4)GlcNAc(b1-3)Gal(b1-4)GlcNAc(b1-2)Man(a1-3)[GlcNAc(b1-3)Gal(b1-4)GlcNAc(b1-3)Gal(b1-4)GlcNAc(b1-2)Man(a1-6)]Man(b1-4)GlcNAc(b1-4)[Fuc(a1-6)]GlcNAc
# Method in brief: as §1
# [8] = biological target: GlcNAc(b1-3)Gal(b1-4)GlcNAc(b1-3)Gal(b1-4)GlcNAc(b1-2)[GlcNAc(b1-3)Gal(b1-4)GlcNAc(b1-3)Gal(b1-4)GlcNAc(b1-6)]Man(a1-6)[GlcNAc(b1-3)Gal(b1-4)GlcNAc(b1-3)Gal(b1-4)GlcNAc(b1-2)Man(a1-3)]Man(b1-4)GlcNAc(b1-4)[Fuc(a1-6)]GlcNAc
# Method in brief: as §1
# [9] = biological target: GlcNAc(b1-3)Gal(b1-4)GlcNAc(b1-3)Gal(b1-4)GlcNAc(b1-3)Gal(b1-4)GlcNAc(b1-2)Man(a1-3)[GlcNAc(b1-3)Gal(b1-4)GlcNAc(b1-3)Gal(b1-4)GlcNAc(b1-3)Gal(b1-4)GlcNAc(b1-2)Man(a1-6)]Man(b1-4)GlcNAc(b1-4)GlcNAc
# Method in brief: as §1
# [10] = biological target: GlcNAc(b1-3)Gal(b1-4)GlcNAc(b1-3)Gal(b1-4)GlcNAc(b1-3)Gal(b1-4)GlcNAc(b1-2)Man(a1-3)[GlcNAc(b1-3)Gal(b1-4)GlcNAc(b1-3)Gal(b1-4)GlcNAc(b1-3)Gal(b1-4)GlcNAc(b1-2)Man(a1-6)]Man(b1-4)GlcNAc(b1-4)[Fuc(a1-6)]GlcNAc
# Method in brief: as §1
# [11] = biological target: GlcNAc(b1-3)Gal(b1-4)GlcNAc(b1-3)Gal(b1-4)GlcNAc(b1-3)Gal(b1-4)GlcNAc(b1-2)[GlcNAc(b1-3)Gal(b1-4)GlcNAc(b1-3)Gal(b1-4)GlcNAc(b1-3)Gal(b1-4)GlcNAc(b1-6)]Man(a1-6)[GlcNAc(b1-3)Gal(b1-4)GlcNAc(b1-3)Gal(b1-4)GlcNAc(b1-3)Gal(b1-4)GlcNAc(b1-2)Man(a1-3)]Man(b1-4)GlcNAc(b1-4)[Fuc(a1-6)]GlcNAc
# Method in brief: as §1
# [12] = biological target: GlcNAc(b1-3)Gal(b1-4)GlcNAc(b1-3)Gal(b1-4)GlcNAc(b1-3)Gal(b1-4)GlcNAc(b1-3)Gal(b1-4)GlcNAc(b1-2)Man(a1-3)[GlcNAc(b1-3)Gal(b1-4)GlcNAc(b1-3)Gal(b1-4)GlcNAc(b1-3)Gal(b1-4)GlcNAc(b1-3)Gal(b1-4)GlcNAc(b1-2)Man(a1-6)]Man(b1-4)GlcNAc(b1-4)GlcNAc
# Method in brief: as §1
# [13] = biological target: GlcNAc(b1-3)Gal(b1-4)GlcNAc(b1-3)Gal(b1-4)GlcNAc(b1-3)Gal(b1-4)GlcNAc(b1-3)Gal(b1-4)GlcNAc(b1-2)Man(a1-3)[GlcNAc(b1-3)Gal(b1-4)GlcNAc(b1-3)Gal(b1-4)GlcNAc(b1-3)Gal(b1-4)GlcNAc(b1-3)Gal(b1-4)GlcNAc(b1-2)Man(a1-6)]Man(b1-4)GlcNAc(b1-4)[Fuc(a1-6)]GlcNAc
# Method in brief: as §1
# [14] = biological target: GlcNAc(b1-3)Gal(b1-4)GlcNAc(b1-3)Gal(b1-4)GlcNAc(b1-3)Gal(b1-4)GlcNAc(b1-3)Gal(b1-4)GlcNAc(b1-2)[GlcNAc(b1-3)Gal(b1-4)GlcNAc(b1-3)Gal(b1-4)GlcNAc(b1-3)Gal(b1-4)GlcNAc(b1-3)Gal(b1-4)GlcNAc(b1-6)]Man(a1-6)[GlcNAc(b1-3)Gal(b1-4)GlcNAc(b1-3)Gal(b1-4)GlcNAc(b1-3)Gal(b1-4)GlcNAc(b1-3)Gal(b1-4)GlcNAc(b1-2)Man(a1-3)]Man(b1-4)GlcNAc(b1-4)[Fuc(a1-6)]GlcNAc
# Method in brief: as §1
# [15] = biological target: GlcNAc(b1-3)Gal(b1-4)GlcNAc(b1-3)Gal(b1-4)GlcNAc(b1-3)GalNAc
# Method in brief: as §1
# [16] = biological target: GlcNAc(b1-3)Gal(b1-4)GlcNAc(b1-3)GalNAc
# Method in brief: as §1
# [17] = biological target: GlcNAc(b1-3)Gal(b1-4)GlcNAc(b1-3)[GlcNAc(b1-3)Gal(b1-4)GlcNAc(b1-3)]GalNAc
# Method in brief: as §1
# [18] = biological target: GlcNAc(b1-3)Gal(b1-4)GlcNAc(b1-6)[Gal(b1-3)]GalNAc
# Method in brief: as §1
# [19] = biological target: GlcNAc(b1-3)Gal(b1-4)GlcNAc(b1-6)[GlcNAc(b1-3)Gal(b1-3)]GalNAc
# Method in brief: as §1
# [20] = biological target: GlcNAc(b1-3)Gal(b1-4)GlcNAc(b1-6)[GlcNAc(b1-3)]Gal(b1-4)GlcNAc
# Method in brief: as §1
# GlcNAc(b1-3)GalNAc = biological target: GlcNAc(b1-3)GalNAc
# Method in brief: as §1
# GlcNAc(b1-3)Man = biological target: GlcNAc(b1-3)Man
# Method in brief: as §1
# [21] = biological target: GlcNAc(b1-3)[GlcNAc(b1-4)][GlcNAc(b1-6)]GlcNAc
# Method in brief: as §1
# [22] = biological target: GlcNAc(b1-3)[GlcNAc(b1-6)]Gal(b1-4)GlcNAc
# Method in brief: as §1
# [23] = biological target: GlcNAc(b1-3)[GlcNAc(b1-6)]GalNAc
# Method in brief: as §1
# [24] = biological target: GlcNAc(b1-4)Gal(b1-4)GlcNAc
# Method in brief: as §1
# GlcNAc(b1-4)GlcNAc = biological target: GlcNAc(b1-4)GlcNAc
# Method in brief: as §1
# [25] = biological target: GlcNAc(b1-4)GlcNAc(b1-4)GlcNAc
# Method in brief: as §1
# [26] = biological target: GlcNAc(b1-4)GlcNAc(b1-4)GlcNAc(b1-4)GlcNAc(b1-4)GlcNAc
# Method in brief: as §1
# [27] = biological target: GlcNAc(b1-4)GlcNAc(b1-4)GlcNAc(b1-4)GlcNAc(b1-4)GlcNAc(b1-4)GlcNAc
# Method in brief: as §1
# [28] = biological target: GlcNAc(b1-4)[GlcNAc(b1-6)]GalNAc
# Method in brief: as §1
# [29] = biological target: GlcNAc(b1-6)Gal(b1-4)GlcNAc
# Method in brief: as §1
# GlcNAc(b1-6)GalNAc = biological target: GlcNAc(b1-6)GalNAc
# Method in brief: as §1
# [30] = biological target: GlcNAc6S(b1-3)Gal(b1-4)GlcNAc
# Method in brief: as §1
# Kdn(a2-3)Gal(b1-3)GalNAc = biological target: Kdn(a2-3)Gal(b1-3)GalNAc
# Method in brief: as §1
# Kdn(a2-3)Gal(b1-3)GlcNAc = biological target: Kdn(a2-3)Gal(b1-3)GlcNAc
# Method in brief: as §1
# Kdn(a2-3)Gal(b1-4)Glc = biological target: Kdn(a2-3)Gal(b1-4)Glc
# Method in brief: as §1
# Kdn(a2-3)Gal(b1-4)GlcNAc = biological target: Kdn(a2-3)Gal(b1-4)GlcNAc
# Method in brief: as §1
# [31] = biological target: Kdn(a2-3)Gal(b1-4)[Fuc(a1-3)]GlcNAc
# Method in brief: as §1
# Kdn(a2-6)Gal(b1-4)GlcNAc = biological target: Kdn(a2-6)Gal(b1-4)GlcNAc
# Method in brief: as §1
# [32] = biological target: Man(a1-2)Man(a1-2)Man(a1-3)Man
# Method in brief: as §1
# [33] = biological target: Man(a1-2)Man(a1-2)Man(a1-6)[Man(a1-3)]Man
# Method in brief: as §1
# Man(a1-2)Man(a1-3)Man = biological target: Man(a1-2)Man(a1-3)Man
# Method in brief: as §1
# [34] = biological target: Man(a1-2)Man(a1-3)[Man(a1-2)Man(a1-6)]Man
# Method in brief: as §1
binder,measurement,setting,value
B1,glycan array binding signal (z-score),GlcNAc(b1-3)Gal(b1-4)Glc,-0.553
same,glycan array binding signal (z-score),[1],-0.558
same,glycan array binding signal (z-score),[2],-0.538
same,glycan array binding signal (z-score),[3],0.753
same,glycan array binding signal (z-score),[4],-0.401
same,glycan array binding signal (z-score),[5],-0.552
same,glycan array binding signal (z-score),[6],-0.529
same,glycan array binding signal (z-score),[7],0.644
same,glycan array binding signal (z-score),[8],0.123
same,glycan array binding signal (z-score),[9],-0.489
same,glycan array binding signal (z-score),[10],0.623
same,glycan array binding signal (z-score),[11],0.032
same,glycan array binding signal (z-score),[12],-0.489
same,glycan array binding signal (z-score),[13],0.887
same,glycan array binding signal (z-score),[14],0.196
same,glycan array binding signal (z-score),[15],-0.542
same,glycan array binding signal (z-score),[16],-0.556
same,glycan array binding signal (z-score),[17],-0.531
same,glycan array binding signal (z-score),[18],-0.558
same,glycan array binding signal (z-score),[19],-0.549
same,glycan array binding signal (z-score),[20],-0.549
same,glycan array binding signal (z-score),GlcNAc(b1-3)GalNAc,-0.547
same,glycan array binding signal (z-score),GlcNAc(b1-3)Man,-0.482
same,glycan array binding signal (z-score),[21],-0.544
same,glycan array binding signal (z-score),[22],-0.551
same,glycan array binding signal (z-score),[23],-0.553
same,glycan array binding signal (z-score),[24],-0.541
same,glycan array binding signal (z-score),GlcNAc(b1-4)GlcNAc,-0.543
same,glycan array binding signal (z-score),[25],-0.549
same,glycan array binding signal (z-score),[26],-0.544
same,glycan array binding signal (z-score),[27],-0.551
same,glycan array binding signal (z-score),[28],-0.55
same,glycan array binding signal (z-score),[29],-0.493
same,glycan array binding signal (z-score),GlcNAc(b1-6)GalNAc,-0.547
same,glycan array binding signal (z-score),[30],-0.548
same,glycan array binding signal (z-score),Kdn(a2-3)Gal(b1-3)GalNAc,-0.368
same,glycan array binding signal (z-score),Kdn(a2-3)Gal(b1-3)GlcNAc,-0.551
same,glycan array binding signal (z-score),Kdn(a2-3)Gal(b1-4)Glc,-0.525
same,glycan array binding signal (z-score),Kdn(a2-3)Gal(b1-4)GlcNAc,-0.555
same,glycan array binding signal (z-score),[31],-0.124
same,glycan array binding signal (z-score),Kdn(a2-6)Gal(b1-4)GlcNAc,-0.547
same,glycan array binding signal (z-score),[32],0.768
same,glycan array binding signal (z-score),[33],1.7
same,glycan array binding signal (z-score),Man(a1-2)Man(a1-3)Man,0.658
same,glycan array binding signal (z-score),[34],1.94
